Laboratory results taken from PubChem BioAssay AID2675 (National Center for Advancing Translational Sciences (NCATS), 2010).
The campaign covered roughly 280,000 compounds. About 100 (0.036%) were called active. The inconclusive results got no clear call from the source; some entries with a clear call stand among them for comparison. The call rests on the fitted dose curve; in most records, active means well fitted inhibition curve with a large enough effect in the signal ratio, with a control signal flat (not every such curve was filed as active); inconclusive means small, poorly fitted or top-dose-only effect, or effect the other way, or a change in a side signal; inactive means no such curve, though single readings can be large or run the other way; the % refers to the signal ratio. A potency beside an inconclusive call is a rough fit, not a confirmed value. “Side channel” marks fits to a control or component signal instead of the main read-out.

The compounds below were run against Muscleblind-like protein 1 (Homo sapiens) (UniProt Q9NR56) (assay: qHTS Assay for Inhibitors of MBNL1-poly(CUG) RNA binding). Details: TR-FRET MBNL1-His/biotin-(CUG)12 binding, 665/545 ratio; activity change, negative = inhibition: at 57.5 µM (top of the series).
In short: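 TR-FRET readout: Ex 340 nm, 665/545 nm emission ratio, normalized to buffer-only (basal) and MBNL1-(CUG)12 controls. Complex of MBNL1-His with Biotin-(CUG)12, compounds 92 nM–58 uM, incubated 60 min at room temperature.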
On the % scale 0 is the no-effect control and ±100 the full control effect; potency means the concentration at half of the fitted maximal effect; tags describe the fitted curve by direction and shape or compound fluorescence and quenching.

Chain of UniProt Q9NR56 (Q9NR56 whole entry, looked up): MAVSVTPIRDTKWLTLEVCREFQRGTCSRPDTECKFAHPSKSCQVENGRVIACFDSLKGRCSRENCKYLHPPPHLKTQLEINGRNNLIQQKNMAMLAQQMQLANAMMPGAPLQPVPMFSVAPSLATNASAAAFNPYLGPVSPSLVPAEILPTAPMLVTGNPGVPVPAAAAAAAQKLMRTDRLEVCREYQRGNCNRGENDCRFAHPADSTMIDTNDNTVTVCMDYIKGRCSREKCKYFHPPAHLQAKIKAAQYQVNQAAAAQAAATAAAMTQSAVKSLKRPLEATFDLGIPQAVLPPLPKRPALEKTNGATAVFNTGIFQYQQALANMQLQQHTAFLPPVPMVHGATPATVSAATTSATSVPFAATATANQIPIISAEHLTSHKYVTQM

| Compound | activity change, negative = inhibition | Potency |
| --- | --- | --- |
| O=C(Nc1ccccc1C(=O)O)c1cc(S(=O)(=O)N2CCCCC2)c(Cl)cc1Cl | inactive: -3.21% |  |
| C=CCc1cc(Cl)ccc1OCCOCCNC(C)CC (configuration not stated) | inactive: 4.32% |  |
| COc1ccc(/C=N/Nc2nc(C)cc(-c3ccccc3)n2)cc1OC |  | inconclusive: 31.6 µM [quencher, side channel, single point] |
| O=C(C[n+]1ccccc1)N/N=C/c1ccccc1[N+](=O)[O-] |  | inconclusive: 25.1 µM [quencher, single point] |
| Cc1ccc(/C=C/c2nc3ccccc3c(=O)[nH]2)cc1 |  | inconclusive: 25.1 µM [fluorescent, side channel, single point] |
| CN(C)S(=O)(=O)c1cc(NC(=O)COC(=O)CCSc2ccc(Cl)cc2)ccc1Cl |  | inconclusive: 1 µM [quencher, side channel, full curve, poor fit] |
| CCN1CCc2c(sc(NC(=S)NC(=O)c3ccccc3)c2C#N)C1 | inactive: 2.17% |  |
| CC(=O)NC1C(=O)N(CCN2CCOCC2)c2ccc(C)cc21 (configuration not stated) |  | inconclusive: 31.6 µM [inhibitor, single point] |
| Cn1nc(N)c2c(-c3ccc(Cl)cc3)c(C#N)c(N)nc21 |  | inconclusive: 28.2 µM [quencher, side channel, single point] |
| COCCn1ccc(O)c(Cc2ccc(Cl)cc2)c1=O |  | inconclusive: 251 µM [inhibitor, single point] |
| O=[N+]([O-])c1ccc(-n2cc(-c3ccccc3)nn2)cc1 |  | inconclusive: 25.1 µM [quencher, side channel, partial curve] |
| COc1ccc(/C=N/NC(=O)CCn2cnc(-c3ccccc3)c2-c2ccccc2)cc1 | inactive: 4.47% |  |
| O=[N+]([O-])c1ccc(-n2cccn2)c(-c2nn[nH]n2)c1 |  | inconclusive: 15.8 µM [quencher, partial curve] |
| Cc1[nH]nc2c1-c1nc3ccccc3nc1C(C)(C)C2 | inactive: 22.5% |  |
| COc1cccc(/C=C2/Sc3ccc(C(=O)NCCCN4CCCC4)cc3NC2=O)c1 |  | inconclusive: 39.8 µM [quencher, side channel, single point] |
| O=C(Nc1ccccc1F)c1ccc2snnc2c1 |  | inconclusive: 14.1 µM [quencher, side channel, partial curve] |
| CC(C)=NOC(=O)c1c(C)noc1-c1snnc1C |  | inconclusive: 39.8 µM [quencher, side channel, partial curve] |
| C=COCCNC(=O)Nc1ccc(Cl)c(Cl)c1 |  | inconclusive: 1 µM [fluorescent, side channel, full curve, poor fit] |
| Cc1nc(N)sc1-c1csc(Nc2ccc(S(N)(=O)=O)cc2)n1 |  | inconclusive: 22.4 µM [quencher, side channel, partial curve] |
| COc1cc(CCC(=O)Nc2ccc(Cl)c(C(F)(F)F)c2)cc(OC)c1OC | inactive: -11.1% |  |
| O=C(Nc1ccc(Cl)cc1)Nc1cc(S(=O)(=O)N2CCOCC2)ccc1N1CCCC1 | inactive: 2.26% |  |

| Compound | activity change, negative = inhibition | Potency |
| --- | --- | --- |
| CC(C)[C@H](NC(=O)Nc1cccc(Br)c1)C(=O)O |  | inconclusive: 2 µM [quencher, side channel, single point] |
| CSCCC(NC(=O)c1cccc([N+](=O)[O-])c1)c1nc2ccccc2[nH]1 (configuration not stated) |  | inconclusive: 14.1 µM [quencher, side channel, partial curve] |
| O=C(CCCN1C(=O)/C(=C/c2cccs2)SC1=S)NNC(=O)c1cccnc1 |  | inconclusive: 20 µM [quencher, partial curve] |
| Cc1cccc(OCC(=O)Nc2ccc3c(c2)C(=O)NC3=O)c1 |  | inconclusive: 10 µM [quencher, side channel, full curve] |
| COc1cc(-c2cc(-c3ccc(N)cc3)[nH]c(=O)c2C#N)cc(OC)c1OC |  | inconclusive: 3.55 µM [quencher, side channel, full curve] |
| NC(=S)c1c(Cl)cc(C(F)(F)F)cc1Cl |  | inconclusive: 0.126 µM [quencher, side channel, full curve, poor fit] |
| Cc1cccc(NC(=O)c2cc(=O)c3ccccc3o2)n1 |  | inconclusive: 12.6 µM [quencher, side channel, partial curve] |
| CN1CC(=O)Nc2ccc([N+](=O)[O-])cc2C1=O |  | inconclusive: 15.8 µM [quencher, side channel, partial curve] |
| CCn1c2ccccc2c2n[nH]c(=S)nc21 |  | inconclusive: 15.8 µM [quencher, side channel, partial curve] |
| CCNc1ccc(N=Nc2c(C)n(C)n(-c3ccccc3)c2=O)cc1 |  | inconclusive: 15.8 µM [quencher, side channel, partial curve] |
| CCCc1[nH]nc2c1C(c1ccc(OC(=O)N3CCOCC3)cc1)C(C#N)=C(N)O2 (configuration not stated) |  | inconclusive: 25.1 µM [quencher, side channel, single point] |
| COC(=O)Nc1ccc(=O)n(Cc2c(Cl)cccc2Cl)c1 | inactive: 3.69% |  |
| COc1cc(/C=C/C(=O)c2ccc(NS(=O)(=O)c3ccc(C)cc3)cc2)cc(OC)c1O | inactive: -2.04% |  |
| COc1ccccc1C(=O)NCCCNc1ccc([N+](=O)[O-])cc1 |  | inconclusive: 28.2 µM [quencher, side channel, partial curve] |
| COc1ccccc1Nc1nc(N)nc(CN2CCN(c3ccccc3)CC2)n1 | inactive: -0.727% |  |
| Oc1ccc(/C=N\Nc2nncc(-c3ccccc3)n2)cc1 |  | inconclusive: 1 µM [quencher, side channel, partial curve] |
| CCc1ccc(NS(=O)(=O)c2cccc3nsnc23)cc1 |  | inconclusive: 7.94 µM [quencher, side channel, partial curve] |
| COc1ccccc1C(=O)NCC(=O)N/N=C/c1ccc([N+](=O)[O-])cc1 |  | inconclusive: 3.55 µM [quencher, side channel, full curve] |
| CCc1ccc(N=c2c([N+](=O)[O-])nn(-c3ccc4c(c3)OCCO4)n2O)cc1 |  | inconclusive: 28.2 µM [quencher, side channel, partial curve] |
| COC(=O)c1ccc(-c2ccc(/C=N/NC(=O)CC3(C)OCCCO3)o2)cc1 |  | inconclusive: 14.1 µM [quencher, side channel, partial curve] |
| Cc1ccc(S(=O)(=O)Nc2ccc(NC(=O)Nc3ccc(F)cc3F)cc2)cc1 |  | inconclusive: 6.31 µM [fluorescent, side channel, partial curve] |

| Compound | activity change, negative = inhibition | Potency |
| --- | --- | --- |
| O=C(O)c1cc(-c2ccc(/C=c3\sc4nc5ccc(Br)cc5n4c3=O)o2)ccc1Cl | inactive: 6.38% |  |
| CCC(=O)Nc1cccc2c1C(=O)N(C)C2=O |  | inconclusive: 20 µM [activator, single point] |
| O=C(NC(=S)N1CCN(c2nc(-c3ccccc3)cs2)CC1)c1cccnc1 |  | inconclusive: 39.8 µM [quencher, side channel, single point] |
| CCOC(=O)/C(C#N)=C/c1cccc([N+](=O)[O-])c1 |  | inconclusive: 25.1 µM [quencher, side channel, single point] |
| COc1ccc(S(=O)(=O)N(CCc2ccccc2)CC(=O)N/N=C/c2ccc3c(c2)OCO3)cc1 |  | inconclusive: 1 µM [fluorescent, side channel, single point] |
| COc1ccc(Cn2c(=O)c3c(nc(NCCO)n3C)n(C)c2=O)cc1 | inactive: 3.11% |  |
| Cc1ccc(C2=[N+]([O-])C3(CCCCC3=O)N(O)C2(C)C)cc1 (configuration not stated) | inactive: 0.972% |  |
| CCn1cc([N+](=O)[O-])c(C(=O)Nc2ccn(Cc3ccccc3)n2)n1 |  | inconclusive: 22.4 µM [quencher, side channel, partial curve] |
| CCO[C@@H]1OC(C(=O)N2CCN(Cc3ccccc3)CC2)=C[C@H](c2cn(C(C)=O)c3ccccc23)[C@H]1CCCO | inactive: 9.18% |  |
| N#Cc1ccc(-c2ccc(OCC(O)CN3CCCCC3)cc2)cc1 (configuration not stated) | inactive: -4.41% |  |
| NC(=O)c1ccc[n+](CC(=O)c2ccccc2)c1 | inactive: 5.9% |  |
| Cc1cc(NC(=O)CSc2nnc(N)s2)c([N+](=O)[O-])cc1C |  | inconclusive: 15.8 µM [quencher, side channel, partial curve] |
| CCOc1ccccc1NC(=O)NNS(=O)(=O)c1ccc([N+](=O)[O-])cc1 |  | inconclusive: 12.6 µM [quencher, side channel, partial curve] |
| COc1c2ccoc2c(OC[C@@H](O)C(C)(C)O)c2oc(=O)ccc12 |  | inconclusive: 17.8 µM [quencher, side channel, partial curve] |
| Cn1c(=O)c([N+](=O)[O-])c(NCc2ccccc2Cl)c2ccccc21 |  | inconclusive: 39.8 µM [quencher, side channel, single point] |
| COc1ccc2[nH]c(=O)c(COC(=O)c3ccco3)cc2c1 |  | inconclusive: 20 µM [fluorescent, side channel, single point] |
| c1ccc(Sc2ncnc3ccccc23)cc1 | inactive: -0.6% |  |
| CC(c1ccco1)N(C(=O)c1ccccc1NS(=O)(=O)c1cccc([N+](=O)[O-])c1)c1ccccn1 (configuration not stated) |  | inconclusive: 25.1 µM [quencher, side channel, single point] |
| CC1(C)Nc2ccc(O)cc2-c2c1ssc2=S |  | inconclusive: 6.31 µM [quencher, side channel, full curve] |
| Nc1nnc2c(C(F)(F)F)nc3ccccc3n12 |  | inconclusive: 20 µM [quencher, side channel, partial curve] |
